# From PubChem BioAssay AID624418 (National Center for Advancing Translational Sciences (NCATS), 2012)
# Out of some 410,000 compounds screened, about 530 (0.13%) were called active. Inconclusive results, whose numbers are uncertain, are shown with a selection of clear calls. Calls follow the shape of the dose curve; as a rule, active = well fitted inhibition curve with a large enough effect; inconclusive = small, poorly fitted or top-dose-only effect, or another doubt; inactive = no such curve, though single readings can be large or run the other way. Potencies of inconclusive entries are doubtful fits and often do not repeat.
# Test: qHTS of GLP-1 Receptor Inverse Agonists: Cytotox Screen
# Conditions: HEK293 cAMP-luciferase reporter cells, luminescence, 24 h; activity change, negative = inhibition: at 38.3 µM (top of the series) unless noted
# Method in brief: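 Here, cytotoxicity is scored as loss of luminescence. The MLSMR collection was tested on cells seeded in medium containing 10% Nu serum, with a 24 hr compound exposure preceded by 12 hours of culture.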
# % is scaled to controls: 0 for no effect and ±100 for the full control effect; potency is read from the fitted curve at half-maximal effect.
SMILES,Potency,"activity change, negative = inhibition"
CCNC(=S)N/N=C/c1cc(C)ccc1C,active: 5.62 µM,–
COc1ccccc1-c1cc(C(F)(F)F)nc(S(=O)(=O)CCCC(=O)Nc2ccccc2F)n1,inactive,–
CC1=NN(C(=O)c2csc(C)c2C)C(O)(C(F)(F)F)C1 (configuration not stated),"inconclusive: 28.2 µM [inhibitor, single point]",–
Cc1cc(C)c(NC(=O)CN2CCN(C)CC2)c(C)c1,inactive,–
COc1cccc(N=Nc2c(N)[nH]n3c(=O)cc(-c4ccccc4)nc23)c1,inactive,–
COc1ccc(OC)c(NC(=O)c2cc(-c3cc(C)ccc3O)n[nH]2)c1,–,inconclusive: -54.7% [inhibitor]
CCOC(=O)c1ccc(N2C(=O)C=C(N3CCOCC3)C2=O)cc1,"inconclusive: 14.1 µM [inhibitor, single point]",–
COc1cc(OC)c(C(=O)NCc2nc(-c3ccccc3)no2)cc1OC,inactive,–
O=C(CCS(=O)(=O)c1ccc(Br)cc1)NCCC1=CCCCC1,"inconclusive: 3.55 µM [inhibitor, full curve, poor fit]",–
Cc1ccccc1NC(=O)c1cc2ccccn2n1,inactive,–
Cc1ccc(-c2nc(NCCCN(C)C)c3ccccc3n2)cc1,inactive,–
O=C(N=C1SC2CS(=O)(=O)CC2N1c1ccc(Cl)cc1)C1CCCO1 (configuration not stated),"inconclusive: 28.2 µM [inhibitor, single point]",–
Cc1nc(N)sc1N=Nc1ccccc1C(F)(F)F,"inconclusive: 12.6 µM [inhibitor, partial curve, poor fit]",–
COc1cc(/C=C/c2cc(C(=O)O)c3ccccc3n2)ccc1OC(F)F,inactive,–
CCOc1ccccc1C1C(C#N)=C(N)Oc2n[nH]c(CC)c21 (configuration not stated),"inconclusive: 31.6 µM [inhibitor, single point]",–
CCOc1cc(CNCCSc2nnnn2C)ccc1OCc1ccc(Cl)cc1Cl,inactive,–
Cc1ccccc1OCCC(=O)Nc1cc(S(=O)(=O)N2CCCCC2)ccc1N1CCN(C)CC1,"inconclusive: 11.2 µM [inhibitor, single point]",–
Nc1nc(-c2ccc(Br)cc2)cs1,inactive,–
C=C(C)COc1ccc(-c2n[nH]c(C)c2-c2ccccc2OC)c(O)c1,"inconclusive: 11.2 µM [inhibitor, single point]",–
COC(=O)c1cccc(Nc2c(-c3ccc(SC)cc3)nc3nc[nH]n23)c1,inactive,–
CN(C)c1nc(-c2cn(CCC#N)c3ccccc23)cs1,"inconclusive: 12.6 µM [inhibitor, single point]",–
COc1ccccc1NC(=S)N/N=C/c1cccc(C)c1,"inconclusive: 3.55 µM [inhibitor, full curve, poor fit]",–
Cc1ccc(S(=O)(=O)N(CC(=O)N/N=C/c2cccc(C)c2)c2cccc3cccnc23)cc1,inactive,–
O=[N+]([O-])c1ccc(N2CCN(S(=O)(=O)c3ccccc3[N+](=O)[O-])CC2)cc1NCc1cccnc1,"inconclusive: 35.5 µM [inhibitor, partial curve, poor fit]",–

SMILES,Potency,"activity change, negative = inhibition"
N=C1C=CC(=C(c2ccc(N)cc2)c2ccc(N)cc2)C=C1,"inconclusive: 8.91 µM [inhibitor, partial curve, poor fit]",–
COc1ccc(C(=O)N2CCN(c3cccc(Cl)c3)CC2)c(OC)c1,"inconclusive: 10 µM [inhibitor, partial curve, poor fit]",–
NC(=O)c1cccc(-c2ccnc3c2CC(C(=O)NCC2CC2)O3)c1 (configuration not stated),inactive,–
COc1cc(C(=O)Nc2ccc3c(c2)CCN3C(C)=O)cc(OC)c1OC,"inconclusive: 3.16 µM [inhibitor, full curve]",–
CC(C)c1cc(NC(=O)CCl)on1,"inconclusive: 31.6 µM [inhibitor, partial curve, poor fit]",–
Cc1cc(C=O)c(C)n1-c1ccc(NC2CCCCC2)c([N+](=O)[O-])c1,"inconclusive: 22.4 µM [inhibitor, single point]",–
CCOC(=O)c1c(NC(=O)COC(=O)/C=C/c2ccco2)sc2c1CC(C)(C)NC2(C)C,"inconclusive: 14.1 µM [inhibitor, single point]",–
Cc1ccccc1NC(C)C(=O)N/N=C/c1ccccc1OCc1cccc(Br)c1 (configuration not stated),"inconclusive: 12.6 µM [inhibitor, partial curve]",–
Cc1cc(C)c(-c2csc(NC(=O)C3=COCCO3)n2)c(C)c1,inactive,–
O=C1CCCC/C1=C/Nc1cccc(C(F)(F)F)c1,inactive,–
Cc1cccc(NC(=S)NC2CC3CCCC(C2)N3Cc2cccs2)c1C (configuration not stated),"inconclusive: 14.1 µM [inhibitor, single point]",–
CCOC(=O)c1cc(-c2ccccc2)n(CCC(=O)Nc2ccc(C(F)(F)F)cc2)c1C,"inconclusive: 12.6 µM [inhibitor, partial curve, poor fit]",–
CCOC(=O)C1CCN(C2=C(NS(=O)(=O)c3ccc(Br)cc3)C(=O)c3ccccc3C2=O)CC1,"inconclusive: 8.91 µM [inhibitor, partial curve, poor fit]",–
Cc1cc(C)cc(Nc2ccc(C(=O)O)cc2N)c1,inactive,–
CCOC(=O)CN1C(=O)N[C@@H](c2ccccc2)C(C(=O)OC)=C1C,–,inconclusive: -30% [inhibitor]
Cc1cc(-c2ccc([N+](=O)[O-])cc2)cc(C)n1,inactive,–
O=[N+]([O-])c1ccc2c(c1N1CCCCC1)=NC1(CCCCC1)[N+]=2[O-],inactive,–
O=C(NC1CCN(C(=S)NCc2ccco2)CC1)c1ccc(F)cc1,"inconclusive: 10 µM [inhibitor, partial curve, poor fit]",–
CCOC(=O)c1c(C)n(C)c2ccc(OCC(O)CNC(CC)CO)cc12 (configuration not stated),"inconclusive: 5.01 µM [inhibitor, partial curve]",–
Cc1ccccc1OCc1nc2ccccc2c(=O)n1/N=C/c1c[nH]c2ccccc12,"inconclusive: 11.2 µM [inhibitor, single point]",–
COc1ccc(C2CC(c3ccc(Cl)c(Cl)c3)Nc3nc(N)nn32)cc1 (configuration not stated),inactive,–
Cc1cccc(NC(=O)CSc2nnc3scc(-c4ccccc4)n23)c1,inactive,–
CC(C)(C)C1CCC(OCC(O)CN2CCN(c3ccccn3)CC2)CC1 (configuration not stated),"inconclusive: 12.6 µM [inhibitor, single point]",–
